Reference: the RNAGym collection of RNA variant scans (doi:10.7554/elife.90254)
The source gives no read counts; variants with many changes may rest on few reads.

B1: LINE1-full (parent)
chain: UACGUAGGUGGUUUUCCCCUGAUAGUGCUAAGGGGGCCUGGAAGUUUGGACUGGGCAGAGCUCAACACAGCGUGGCAAAGUGGCUGUGGCUAGACUGCCUCUCUGGAUUCCUCGUCACUCAGCAGGGCAUCUCUGAGAGAAAUGCC

Variants of: B1
Test: self-cleavage, relative activity (ratio to wild type); higher = more cleavage; in vitro, sequencing; the parent is a self-cleaving ribozyme

Row | Variant | self-cleavage
1 | U26A A30G A65G | 0.35
2 | A24U U52C U62C A67U G80U | 0.08
3 | U26A U81C U112A U119A | 0.48
4 | G25A G105A U119A | 1.31
5 | U26A G48A U81C | 0.88
6 | U26A A138G U143C | 2.26
7 | U26C A43G G127A | 0.91
8 | U26A A43G U73C U130A | 0.45
9 | A24U U62C U108C U115C | 0
10 | U26C A50U A107U | 1.07
11 | U26C A57G U119C A140G | 2.3
12 | U26A A121G A141G | 1.33
13 | U26A U46C G89A U115C A117G | 0
14 | U26C A59G G105A U132C | 0.13
15 | U26A A77G U81G A142G | 1.31
16 | U26A U87A U96C | 0.13
17 | G25A U108C A138G | 1.34
18 | U26A A57G C128U | 0.85
19 | U26C A42G U52C A142G | 2.63
20 | U26C A42U A43G C71A A77U U112C A129U U132C | 0.11
21 | U26A A79G A124U | 0.27
22 | G25A U130C A142G | 1.7
23 | A24U G34A G125A A140G | 1.11
24 | G25A A42G U87C A129U U134A | 0.17

Row | Variant | self-cleavage
25 | U26C A30G A64G U115C | 0
26 | U26A A79G C128U A136G A141G | 1.41
27 | U26A A78G U130A | 0.64
28 | U26C A43U C56U | 0.12
29 | U26A G82A G88A | 0.08
30 | G25A A69G C99U | 0.16
31 | U26C A30U A69U U91C A142G | 0
32 | A24U C110U U132C A140G | 1.55
33 | U26A U47A U115C | 1
34 | U26A G55A U73A C110U | 0.06
35 | U26A A31U U39A A64U U112C | 0.29
36 | U26C A43G U143A | 1.07
37 | A24U U45C A67G U96A | 0.66
38 | U26A U130C U143C | 0.76
39 | G25A U39A U47C A138G | 1.41
40 | U26A A43G U52A U81A U102C U134C | 1.99
41 | A24U A30G U100A | 1.01
42 | G25U A79G U130C A138G | 1.13
43 | U26A U62C A69G A140G | 0.05
44 | U26C A31G A124U U134C | 1.9
45 | U26C A31U U46C A79U | 2.55
46 | A24U A30G C111U | 1.13
47 | G25A A31G U81C U108A | 1.5
48 | G25A U62A A65G U104A | 0

Row | Variant | self-cleavage
49 | A24U U47C U109A | 1.73
50 | U26A A65G U81C A142G | 0
51 | U26A G34A U45C U85C A138G A141G | 0.09
52 | A24U A59U U109C | 0.74
53 | U26A U39C U115A | 0.79
54 | A24U G72A U91C U132A A136G | 0.92
55 | G25A U26C U130C | 1.65
56 | U26A U62A A65G | 0.06
57 | U26A A64C A141G | 0.11
58 | A24U G48A U81A A92U | 0.45
59 | U26C A42G A142G | 1.12
60 | U26A C84U U115C | 0.12
61 | U26A C56U U73C | 0.18
62 | U26A U47A C61A A65C A67U U102C | 0.02
63 | U26A A59U A78U U85C | 0.23
64 | G25C A92G U130C | 0.16
65 | A24U A42G A138G | 0.66
66 | G25A A30G U91C | 0.35
67 | U26A A77U C90U A107G U109C | 0.04
68 | A24U A42G U87C U132C A138G | 0.46
69 | U26C A43G A78G A94U U130C A138G | 0
70 | A24U U45C A77U G88A U104C A138G | 0.15
71 | U26A U81C A140G U143C | 1.38
72 | G25A A42G A79G A92C C99U | 0.17

Row | Variant | self-cleavage
73 | A24U A64C U73G C146U | 0.33
74 | G25U A31U U45C | 1.4
75 | U26A U39C U102C | 0.59
76 | U26A U62A U119A | 0.03
77 | A24U U46C A59U | 0.8
78 | G25A U47C A117G | 1.39
79 | U26A G126A A142G | 1
80 | U26A U52A A57G U108C | 0.52
81 | A24U A64G C71U U108A | 0.15
82 | U26C A30G U39C | 0.32
83 | U26A A57G U62C U96A | 0
84 | U26A U96A C146U | 0.04
85 | A24U A121G A141G | 1.79
86 | U26A U29C U112C A142G | 1.89
87 | U26A G32C A59C | 1.57
88 | A24U A42U U52C | 0.51
89 | A24U U45C U109C A124G | 1.23
90 | A24U U108C C113U A124U U134A | 1.78
91 | U26C A57U A138G | 0
92 | U26A A67G G72A C146U | 0.33
93 | A24U U29C A64U | 0.54
94 | A24U G41U U104A | 1.19
95 | G25A A30G G88A U109C A121G | 0.11
96 | U26A G40U A57G U62C U87C | 0.1

Row | Variant | self-cleavage
97 | U26A A67G A121G A140U U143A | 0.38
98 | G25U U47A G55A U96C A141G | 0.03
99 | U26A U85A C101A U119C | 0.1
100 | U26A G48A U132C | 0.72
101 | U26A G33U U52C U102A | 1.15
102 | A24U A59U A79G G89A U104C A136G A142G | 0.15
103 | U26C A30G C63U A140G | 0.41
104 | U26A A50G A129C | 1.56
105 | A24U A31U A79U A138U | 1.1
106 | G25A U62C A69U | 0.05
107 | U26A U119C A138G | 1.38
108 | G25A A94G A124G U130C U134A | 0
109 | A24U A43G U100C | 2.07
110 | U26C A43G A64G | 0.61
111 | A24U A69G U112C | 0.31
112 | G25A A78G A129U | 1.16
113 | A24U A43G U62C | 0.23
114 | U26A A92G C128U | 0.13
115 | G25A U52C A65G A69G | 0.29
116 | U26A C66U U73A U102C A107G U108C U112C | 0.08
117 | U26C A43U U45C A57G C113U | 0.11
118 | U26A U47A U112C | 0.75
119 | U26A A69G A77G A142U | 0
120 | A24U C66U U119C | 0.17

Row | Variant | self-cleavage
121 | G25A A30G U134A A138G | 1.62
122 | U26A A59G A69U | 0.08
123 | G25C U85C A140G | 0.19
124 | A24U A42U A142U | 1.01
125 | A24U A78G G144A | 1.15
126 | U26A G36A A142C | 0.95
127 | U26C A50G A79U G105A | 0.91
128 | U26A A43G A67G U73C A142G | 0
129 | G25A A77G U81A U112C | 2.54
130 | U26C A64G A79G U134C | 0
131 | U26A U46C A129U | 1.29
132 | A24U A42G C84U A129U | 0.11
133 | G25U U81A U85A U132G | 0.11
134 | U26C A42U C113A | 1.29
135 | U26A U87C U108C | 0.13
136 | U26A U91A C110U | 0.44
137 | U26A A64G G105A | 0.18
138 | U26A U39A U108C U130C A141G | 0.84
139 | U26A G53U G137U | 1.06
140 | U26A U47C A136G | 1.48
141 | G25A A50G U100C | 1.74
142 | U26A U39A A43G U52A A79G U132C | 0.98
143 | U26C A42G A124G | 1.53
144 | G25A G35A U47A A69U G139U | 0.07

Row | Variant | self-cleavage
145 | A24U C76U U87C U115C | 0.54
146 | U26C A65G U119C A138G | 0
147 | U26A A65G A78U | 0.06
148 | U26C A57G U100C A117U | 0.84
149 | U26A A77C G122U | 0.86
150 | U26A C56A A64C U112C C113U U130C | 0.02
151 | U26A U81C A94U U104C | 1.15
152 | A24U G75A U112C | 1.19
153 | U26A A42U A69G | 0.44
154 | U26A U39A U134A | 0.64
155 | G25A U109C A129U | 0.9
156 | U26A U108A G114A U134C | 0.22
157 | U26A C38U A136G | 1.24
158 | U26A A31G A43G | 0.67
159 | A24U U46C U52A G127A | 1.49
160 | A24U U26C G36A U47C U115C | 1.08
161 | U26A A79G U134C A138G | 1.23
162 | U26A G48A A69U A141G | 0
163 | U26A A94C U130C | 0.04
164 | U26C A43U G55U A64C U73A A138G | 0.05
165 | G25A A42G G60A | 0.09
166 | U26A U39G U46G G53A | 0.57
167 | U26A U39C U96A U134C | 0.05
